Experimental data as given in PubChem BioAssay AID1030 (National Center for Advancing Translational Sciences (NCATS), 2008).
About 16,000 (7.3%) of roughly 220,000 compounds were called active. Inconclusive means that the source gave no clear call. Such entries were picked first, then a sample of the others. Calls follow the shape of the dose curve; as a rule, active = well fitted inhibition curve with a large enough effect (not every such curve was filed as active); inconclusive = small, poorly fitted or top-dose-only effect, or another doubt; inactive = no such curve, though single readings can be large or run the other way. Potencies of inconclusive entries are doubtful fits and often do not repeat.

These molecules were tested against Aldehyde dehydrogenase 1A1 (Homo sapiens) (UniProt P00352) (assay: qHTS Assay for Inhibitors of Aldehyde Dehydrogenase 1 (ALDH1A1)). Settings: Purified ALDH1A1, NADH fluorescence, propionaldehyde substrate; series mostly up to 75.3 µM.
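For activity, negative = inhibition in this document: plate controls were no enzyme wells and a reference inhibitor.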
Potency is read from the fitted curve at half-maximal effect; tags tell the direction and shape of the fitted curve.

Chain of UniProt P00352 (P00352 whole entry, looked up): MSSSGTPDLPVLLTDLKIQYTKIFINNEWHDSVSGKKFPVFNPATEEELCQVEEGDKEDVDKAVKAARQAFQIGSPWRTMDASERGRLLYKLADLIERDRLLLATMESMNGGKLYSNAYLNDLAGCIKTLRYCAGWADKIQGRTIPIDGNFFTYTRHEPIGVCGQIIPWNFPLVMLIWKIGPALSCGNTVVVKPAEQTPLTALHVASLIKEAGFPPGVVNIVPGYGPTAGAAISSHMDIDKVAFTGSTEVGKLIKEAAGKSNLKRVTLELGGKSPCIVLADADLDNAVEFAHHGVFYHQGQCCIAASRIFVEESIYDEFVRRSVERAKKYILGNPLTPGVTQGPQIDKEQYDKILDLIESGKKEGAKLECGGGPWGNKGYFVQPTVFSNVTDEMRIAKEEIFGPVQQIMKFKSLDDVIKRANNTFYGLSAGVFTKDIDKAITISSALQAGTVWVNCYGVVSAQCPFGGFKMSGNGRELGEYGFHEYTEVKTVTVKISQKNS

Potency, active:
CCOc1ccc2nc(SC3CC(=O)N(c4ccc(OC)cc4OC)C3=O)sc2c1 (stereo not drawn) 25.1 µM
Cc1cccc(-c2ccc(C=Nc3c(C)n(C)n(-c4ccccc4)c3=O)o2)c1 11.2 µM
O=C(/C=C/c1ccccc1Cl)c1cccnc1 14.1 µM
CCOc1ccc(N2C(=O)CC(NCCNc3ccc([N+](=O)[O-])cn3)C2=O)cc1 (stereo not drawn) 0.891 µM
COc1ccc(OCCCC(=O)Nc2nc(-c3ccccn3)cs2)cc1 31.6 µM
O=C(O)C1CC=CCC1C(=O)Nc1ccc(S(=O)(=O)N2CCCc3ccccc32)cc1 (stereo not drawn) 22.4 µM
Cc1ccc(C(=O)c2nocc2C(=O)c2cccs2)cc1 3.16 µM
Clc1ccc(C2=NNC(=NCc3ccc4c(c3)OCO4)SC2)cc1 22.4 µM
Cc1ccccc1-n1nnnc1SCC(=O)NCC1CCCO1 (stereo not drawn) 5.62 µM
CCOc1cc(C)c(C(C)C)cc1S(=O)(=O)N1CCOCC1 3.55 µM

Potency, inactive:
Cc1ccc(CNC(=O)[C@H]2C[C@@H]2[C@H](NP(=O)(c2ccccc2)c2ccccc2)c2ccccc2)o1
CCn1c(SCC(=O)N/N=C/c2c[nH]c3ccccc23)nnc1-c1ccc(Cl)cc1
CCN1CCCC1CNC(=O)C(=O)NC(C)C (stereo not drawn)
CCN(CC)S(=O)(=O)c1cccc(C(=O)N/N=C/c2ccccc2OCC(=O)O)c1
COC(=O)CCCC(=O)Nc1ccc(Cl)c(Cl)c1
Cc1cccc(NC2=C(C#N)C(=O)NC3(CCCC3)S2)c1
COc1ccc(CC(=O)NC(C)c2nnc(SCCC(=O)Nc3ccccc3)n2C)cc1 (stereo not drawn)
COc1cccc(C(=O)NCc2ccccc2OC)c1
Cc1ccccc1C(=O)N/N=C/c1ccsc1C
COc1ccc(-n2nnnc2SCC(=O)c2cccc(OC)c2)cc1
CC1(C)C(c2ccccn2)=[N+]([O-])C(C)(C)N1O
Cn1cc(Br)c(C(=O)Nc2ncc(Br)s2)n1
O=c1c2ccccc2nc(-c2ccco2)n1/N=C/c1ccccc1O
Cc1noc(C)c1C(=O)N1CCC[C@@]2(CCN(C(=O)NC(C)C)C2)C1
COc1cccc(C(=O)COc2ccc3c(C)c(Cc4ccccc4)c(=O)oc3c2C)c1

Potency, inconclusive:
CCN(CC)S(=O)(=O)c1cccc(C(=O)NC2CCCCC2)c1 20 µM [inhibitor, partial curve]
Cc1nnc(C)n1/N=C/c1cccc([N+](=O)[O-])c1 39.8 µM [inhibitor, single point]
COc1cccc(Cn2c(=O)c(C)nc3cnc(N4CCN(C)CC4)nc32)c1 35.5 µM [inhibitor, single point]
c1ccc(Cn2nnc3c(N4CCc5ccccc5C4)ncnc32)cc1 39.8 µM [inhibitor, single point]
CSCCC(NC(C)=O)C(=O)Oc1ccc2c3c(c(=O)oc2c1)CCCC3 (stereo not drawn) 25.1 µM [inhibitor, partial curve]
N#CC1=C(N)N(c2ccccc2)C2=C(C(=O)CCC2)C1c1cccs1 (stereo not drawn) 25.1 µM [inhibitor, single point]
CCOC(=O)N1CCC(NC(=O)c2ccc3c(c2)N(Cc2ccccc2)CCS3)CC1 20 µM [inhibitor, partial curve]
O=C(CCN1C(=O)c2cccc3cccc(c23)C1=O)Nc1ccon1 39.8 µM [inhibitor, single point]
Cc1oc(/C=N/NC(=O)CC2(C)OCCO2)cc1Br 4.47 µM [inhibitor, single point]
Cc1cccc(NC(=S)NCc2cccs2)c1C 22.4 µM [inhibitor, partial curve]
COc1ccc(-n2c(=O)c(C)nc3cnc(Nc4cccc(OC)c4)nc32)cc1 39.8 µM [inhibitor, single point]
CNC(=O)C1CC(=O)N(CCCc2ccccc2)C(=Nc2ccccc2)S1 (stereo not drawn) 39.8 µM [inhibitor, single point]
CCc1nnc(NS(=O)(=O)c2ccc(NC(=S)NC(=O)/C=C/c3ccccc3)cc2)s1 31.6 µM [inhibitor, single point]
CCn1c(CS(=O)Cc2ccc(Cl)cc2Cl)nnc1SCc1c(Cl)cccc1Cl (stereo not drawn) 25.1 µM [inhibitor, single point]
CCN(CC)c1ccc(C2Nc3cccc4cccc(c34)N2)c(O)c1 15.8 µM [inhibitor, partial curve]
Cc1ccc(-n2nc(C)c3c(C)cc(=O)[nH]c32)cc1 39.8 µM [inhibitor, single point]
Cn1c(C(=O)N2CCc3ccccc3C2)cc2c(=O)n3ccccc3nc21 31.6 µM [inhibitor, partial curve]
CCOC(=O)N1CCN(S(=O)(=O)c2ccc(F)c(C(=O)Nc3cccc(Cl)c3C)c2)CC1 25.1 µM [inhibitor, single point]
N#Cc1ccc(-c2ccc3c(c2)OCO3)nc1SCC(=O)OCc1ccccc1 35.5 µM [inhibitor, partial curve]
COc1ccc2[nH]c(=O)c(CN(c3ccc(C)c(C)c3)S(C)(=O)=O)cc2c1 31.6 µM [inhibitor, partial curve]
COc1ccc(-c2nnc(SCCC(=O)O)n2-c2ccccc2)cc1 35.5 µM [inhibitor, single point]
CC(=O)Nc1ccc(C2NC(=S)N(c3ccccc3C(F)(F)F)C(C)=C2C(=O)N2CCOCC2)cc1 (stereo not drawn) 39.8 µM [inhibitor, single point]

activity, negative = inhibition, inactive:
C[C@@H](c1ccccc1)N1C(=O)[C@H]2[C@H]3[C@H](O)[C@H](O)C/C(=N/OCc4ccccc4)[C@H]3CC[C@@H]2C1=O 0.764% [at 13.5 µM]
